Test results from US20150017162A1 (OMEROS, published 2015).
Where a chain is given by its changes, count along the chain named.

T1: human MASP-1 (human, UniProt P48740 20-699)
T1 sequence: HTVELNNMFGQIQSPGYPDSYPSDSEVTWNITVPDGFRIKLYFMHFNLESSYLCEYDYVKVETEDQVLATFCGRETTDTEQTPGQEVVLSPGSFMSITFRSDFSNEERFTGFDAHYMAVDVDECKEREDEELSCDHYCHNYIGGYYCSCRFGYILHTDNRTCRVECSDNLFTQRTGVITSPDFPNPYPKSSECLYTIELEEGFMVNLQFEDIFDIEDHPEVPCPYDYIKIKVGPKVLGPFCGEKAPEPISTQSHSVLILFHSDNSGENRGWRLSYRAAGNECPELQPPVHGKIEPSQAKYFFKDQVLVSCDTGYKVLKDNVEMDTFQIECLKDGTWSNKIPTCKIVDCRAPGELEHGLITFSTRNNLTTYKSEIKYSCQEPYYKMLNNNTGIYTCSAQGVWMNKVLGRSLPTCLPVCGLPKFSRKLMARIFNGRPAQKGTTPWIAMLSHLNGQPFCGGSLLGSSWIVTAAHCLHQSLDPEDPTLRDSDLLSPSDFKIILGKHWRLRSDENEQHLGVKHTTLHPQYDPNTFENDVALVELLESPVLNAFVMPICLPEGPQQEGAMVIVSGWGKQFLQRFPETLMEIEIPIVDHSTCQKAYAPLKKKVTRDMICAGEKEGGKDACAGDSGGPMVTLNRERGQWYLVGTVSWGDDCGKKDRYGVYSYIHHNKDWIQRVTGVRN

B1: SGMI-1Fc (Fc fusion)
chain: LEVTCEPGTTFKDKCNTCRCGSDGKSAFCTRKLCYQGTGGGSGSSSRS[not shown - human IgG1 Fc]
B2: SGMI-2Fc (Fc fusion)
chain: B1 chain with F28V, R31K, K32L, L33W, Y35N

How the values were obtained:
human MASP-1 = target: T1, human MASP-1; experiment: cell-based or functional assay
human MASP-2 = human MASP-2 (human, UniProt O00187 16-686); experiment: cell-based or functional assay
Chain of human MASP-2 (O00187 16-686): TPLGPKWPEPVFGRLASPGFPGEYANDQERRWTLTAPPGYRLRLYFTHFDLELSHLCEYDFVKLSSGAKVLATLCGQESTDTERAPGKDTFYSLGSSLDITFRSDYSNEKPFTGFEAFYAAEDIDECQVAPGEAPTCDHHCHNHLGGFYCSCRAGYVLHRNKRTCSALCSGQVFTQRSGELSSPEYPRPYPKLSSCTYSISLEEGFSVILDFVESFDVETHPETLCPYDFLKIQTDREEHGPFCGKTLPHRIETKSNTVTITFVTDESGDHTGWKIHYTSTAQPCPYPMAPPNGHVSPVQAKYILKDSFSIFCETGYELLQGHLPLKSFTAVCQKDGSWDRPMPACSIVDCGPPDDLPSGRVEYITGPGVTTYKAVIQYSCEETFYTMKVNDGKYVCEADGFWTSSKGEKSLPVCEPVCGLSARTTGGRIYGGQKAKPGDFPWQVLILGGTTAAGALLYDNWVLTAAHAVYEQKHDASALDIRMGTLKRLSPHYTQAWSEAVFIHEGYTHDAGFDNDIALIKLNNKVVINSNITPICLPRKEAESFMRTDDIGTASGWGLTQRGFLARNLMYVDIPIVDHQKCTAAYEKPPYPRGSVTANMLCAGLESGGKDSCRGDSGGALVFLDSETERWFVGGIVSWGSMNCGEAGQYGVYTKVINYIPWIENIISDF

Row | Binder | IC50, C3b deposition from 1% normal human serum on mannan-coated ELISA wells (human MASP-1) | IC50, C3b deposition from 1% normal human serum on mannan-coated ELISA wells (human MASP-2)
1 | B1 | ~27 nM | 
2 | B2 |  | ~300 nM
